Measured values from a collection of fitness landscapes (doi:10.1016/j.celrep.2020.107928).
In all, about 81,000 sequences were measured (“one-hybrid fitness for binding parS DNA”: median about -0.17, highest 2% from about 0.51 on). This is one part of the list.

B1: Caulobacter ParB omega fusion; a variant is named by its letters at X, in order, B8GW30 (parent)
chain: MESVVVGEPGMSEGRRGLGRGLSALLGEVDAAPAQAPGEQLGGSREAPIEILQRNPDQPRRTFREEDLEDLSNSIREKGVLQPILVRPSPDTAGEYQIVAGERAWRAAQRAGLKTVPIMVRELDDLAVLEIGIIENVQRADLNVLEEALSYKVLMEKFERTQENIAQTIGKSXSHVANXMRLLXLPDEVQSYLVSGELTAXHARAIAAAADPVALAKQIIEGGLSVRETEALARKAPNLSAGKSKGGRPPRVKDTDTQALESDLSSVLGLDVSIDHRGSTGTLTITYATLEQLDDLCNRLTRGI

Variants of: B1
Assay: one-hybrid fitness for binding parS DNA (scaled: cognate 1, non-cognate 0); higher = stronger binding
Conditions: with parS DNA site
Procedure, shortened: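 Pre- and post-selection plasmids were Illumina-sequenced, three replicate libraries were pooled, and any variant with under 10 reads was removed. The libraries were Caulobacter ParB with four specificity codons randomised, selected in E. coli USO through a HIS3 reporter whose site is 19 bp from the promoter. Cells grew 48 hours at 37°C on M9 without histidine, with 0.1 mM IPTG and 5 mM 3-AT. Fitness is the log change in variant-to-wild-type read ratio, rescaled against cognate and non-cognate.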

one-hybrid fitness for binding parS DNA, ≤ 0.2:
QPAD
QMAC
EYEV
TSLT
HARS
AYKS
HGYR
WLVG
MWHK
AQSG
IAHE
GRCT
HTKL
TTPH
DGKG
FLTS
GPIY
WGPE
NNPA
SLHL
DTYN
CYPQ
TYIF
HRCI
LKNL
TNQD
YMMG
PWSG
DKDW
DAQR
NVYM
NLRL
EISC
RGVM
TWDP
QTVC
WPPC
TDRA
ADYY
LAQC
QNSM
SEHE
CFHG
RQVM
SPYC
GDCC
ENKA
TLDG
ESVI
GHPP
VRSG
SSQA
ARYT
CNPR
QAVR
ARGP
YAKS
WSEG
ATIE
STSA
NHHG
MPHL
EKYC
SMNI
FTVL
SDTM
YQCS
HMDT
NSAI
IRQR
PILN
VSPV
RLKL
FKMS
PVHG
QRET
LRQA
DDYY
IILC
VPTC
QKCG
QSMD
FRRT
NWVT
WFHT
HVQT
GYRK
PQTH
DDRR
LNRL
AYSW
PVGL
RRQE
TGAR
LRIS
FHRG
VINC
NSSE
SIKV
YGRY
HAYG
KDPE
EQLC
CCPR
PTVT
KRRH
KNKT
RCQE
DMRV
EGMW
ASKK
WTES
EASA
GFDT
GFLM
QNCP
QICF
HCNH
TTND
SYIS
QIEC
RKSH
LLAG
SKPC
AVAT
QVSR
FLDS
TSRV
ISIS
FTLR
YGDC
SYAT
AVVD
PKQG
ALDQ
SSQW
YKRL
NRRV
MVHW
TDAA
PQFC
HGDN
LHWV
VPFF
RILK
SADK
AEYA
QREV
QFCS
LSSW
NEWS
NRQT
SEQC
QTPW
TIMR
LLVD
RHSQ
YRLG
HCTP
CQHY
GLVS
RISI
KNGR
IEPR
AAPL
KPIT
DHCK
VQLN
HLSF
DKVQ
GGLG
SRGR
SACR
KAKL
TSHL
PETR
FLCR
TRFW
KRKV
VNCI
WLSR
WLQT
SYQQ
PPIP
FHDS
EGGL
CLLV
QMMT
ANPF
YCWG
AAQC
AQQL
PRWT
MRHG
VCSH
KARS
MWYC
RDIW
KIPN
PKEC
CDTF
LLAW
GCTP
GKLG
PDQR
DLNS
IVTR
YPHH
IFRT
NAWS
CRKL
SRVG
ITRY
KSHV
RQHI
ISYR
CYLL
PEKV
YNNH
SVQR
ITAL
CRPK
MIVW
TTKF
IAPT
SQNG
QYTT
FLLM
AWHR
DTFR
QKNR
TLYC
QDNS
LYAT
QETH
DPNF
SHPW
DGVI
QPYL
TEVL
LFTI
RWHQ
ENGR
NSKG
YVWI
QNDR
TEYF
DCRN
WAAG
LPSS
WWPY
HLTW
HGLE
WCKY
HRLR
PDKG
TDAY
PTCG
EYGF
IDNA
LGTG
RKHD
KFNS
LIDR
VQCG
HYST
TWLR
SNCS
WKSM
TTKA
KSHG
VTFG
TEPS
PCMT
HSDC
RPQN
TASW
LMNP
YKHS
LWHN
GQPL
NKTF
ANDS
KVQS
GMHD
SRLL
VQDR
CQLR
SGAL
RKEV
SKMQ
MWNS
GHYT

one-hybrid fitness for binding parS DNA, 0.749:
RRGA

one-hybrid fitness for binding parS DNA, 0.513:
RCWY

one-hybrid fitness for binding parS DNA, 0.976:
RICG

one-hybrid fitness for binding parS DNA, 0.462:
RYLY

one-hybrid fitness for binding parS DNA, 0.965:
RHFS

one-hybrid fitness for binding parS DNA, 0.592:
RAAA

one-hybrid fitness for binding parS DNA, 0.253:
RTTF

one-hybrid fitness for binding parS DNA, 0.475:
RHPS

one-hybrid fitness for binding parS DNA, 0.224:
RVSW

one-hybrid fitness for binding parS DNA, 0.256:
RQIY

one-hybrid fitness for binding parS DNA, 0.203:
RVRH

one-hybrid fitness for binding parS DNA, 0.868:
RKYT

one-hybrid fitness for binding parS DNA, 0.238:
EPGN
